Test results: patent US20060165687A1, “Vaccine adjuvant” (DUKE UNIVERSITY, priority 2004, published 2006)

Test system: thymocytes (thymopoiesis)
Settings: day 10 post treatment with Y13 (0.25 mg) and TLR agonist

With flagellin [TLR-5 ligand] the “thymopoiesis (number of thymocytes isolated)” value was “suppress thymopoiesis”.
